The assay concerns the target human recombinant P2X7 receptor (Homo sapiens (Human), UniProt Q99572). As to the kind of experiment: YO-PRO1 assay, P2X7 receptor antagonistic activity. The following applies: HEK-293 cells expressing human recombinant P2X7 receptor; YO-PRO-1 fluorescence; ATP 250 μM for 90 minutes.

Molecules are shown by their SMILES.

Chain of UniProt Q99572 (Q99572 whole entry): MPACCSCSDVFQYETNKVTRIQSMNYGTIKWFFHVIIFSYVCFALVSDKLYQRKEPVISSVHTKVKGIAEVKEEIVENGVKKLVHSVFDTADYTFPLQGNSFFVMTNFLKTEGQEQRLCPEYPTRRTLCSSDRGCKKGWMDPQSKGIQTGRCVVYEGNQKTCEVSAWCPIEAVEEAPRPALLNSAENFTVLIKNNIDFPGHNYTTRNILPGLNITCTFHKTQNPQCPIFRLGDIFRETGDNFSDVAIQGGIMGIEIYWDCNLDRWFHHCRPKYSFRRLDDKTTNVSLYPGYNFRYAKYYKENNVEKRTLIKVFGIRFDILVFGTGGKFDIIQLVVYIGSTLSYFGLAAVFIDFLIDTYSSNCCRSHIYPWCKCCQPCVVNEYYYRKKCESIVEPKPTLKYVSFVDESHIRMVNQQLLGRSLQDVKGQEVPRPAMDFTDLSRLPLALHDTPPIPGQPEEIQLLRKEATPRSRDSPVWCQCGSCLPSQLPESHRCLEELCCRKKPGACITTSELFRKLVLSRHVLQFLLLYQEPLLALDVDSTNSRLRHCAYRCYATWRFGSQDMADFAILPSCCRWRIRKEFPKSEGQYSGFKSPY

As a reminder, the IC50 is the concentration at which inhibition is half-maximal. For `O=C(NCC1(c2cccnc2)CCCC1)c1ccc2[nH]ccc2c1Cl` [Example 18, 4-Chloro-1H-indole-5-carboxylic acid (1-pyridin-3-yl-cyclopentylmethyl)-amide], the IC50 was determined as 178 nM.
For the compound `O=C(NCC1(c2cccnc2)CCCCCC1)c1ccc2[nH]ccc2c1Cl` [Example 19, 4-Chloro-1H-indole-5-carboxylic acid (1-pyridin-3-yl-cycloheptylmethyl)-amide], the IC50 was found to be 18 nM.
For `Cc1cc(C(=O)NCC2(O)CCCCC2)c(Cl)c2cc[nH]c12` [Example 20, 4-Chloro-7-methyl-1H-indole-5-carboxylic acid (1-hydroxy-cyclohexylmethyl)-amide], the IC50 turned out to be 6.1 nM.
For `O=C1Cc2c(ccc(C(=O)NCC3(O)CCCCCC3)c2Cl)N1` [Example 21, 4-Chloro-2-oxo-2,3-dihydro-1H-indole-5-carboxylic acid (1-hydroxy-cycloheptylmethyl)-amide] the value was 302 nM.
For the compound `Cc1cc2c(Cl)c(C(=O)NCC3(O)CCCCC3)ccc2[nH]1` [Example 22, 4-Chloro-2-methyl-1H-indole-5-carboxylic acid (1-hydroxy-cyclohexylmethyl)-amide], the IC50 is 1180 nM.
For `CSc1c[nH]c2c(I)cc(C(=O)NCC3(O)CCCCC3)c(Cl)c12` [Example 23, 4-Chloro-7-iodo-3-methylsulfanyl-1H-indole-5-carboxylic acid (1-hydroxy-cyclohexylmethyl)-amide] the value was 1150 nM.
For the compound `Cc1cc(C(=O)NCC2(O)CCC(F)(F)CC2)c(Cl)c2cc[nH]c12` [Example 24, 4-Chloro-7-methyl-1H-indole-5-carboxylic acid (4,4-difluoro-1-hydroxy-cyclohexylmethyl)-amide], the IC50 turned out to be 4.7 nM.
Take `Cc1cc(C(=O)NCC2(O)CCCCCC2)c(Cl)c2cc[nH]c12` [Example 25, 4-Chloro-7-methyl-1H-indole-5-carboxylic acid (1-hydroxy-cycloheptylmethyl)-amide]: the IC50 came out at 2.9 nM.
With `O=C(NCC1(O)CCCCCC1)c1ccc2[nH]cc(F)c2c1Cl` [Example 26, 4-Chloro-3-fluoro-1H-indole-5-carboxylic acid (1-hydroxy-cycloheptylmethyl)-amide], the IC50 was found to be 11.4 nM.
On to `COc1c(C(=O)NCC2(O)CCCCCC2)ccc2[nH]ccc12` [Example 27, 4-Methoxy-1H-indole-5-carboxylic acid (1-hydroxy-cycloheptylmethyl)-amide], for which the IC50 was 682 nM.
In the case of `O=C(NCC1(O)CCCCC1)c1ccc2[nH]cc(Cl)c2c1Cl` [Example 28, 3,4-Dichloro-1H-indole-5-carboxylic acid (1-hydroxy-cyclohexylmethyl)-amide], the IC50 was determined as 151 nM.
Regarding `O=C(NCC1(O)CCCCC1)c1cc([N+](=O)[O-])c2[nH]ccc2c1Cl` [Example 29, 4-Chloro-7-nitro-1H-indole-5-carboxylic acid (1-hydroxy-cyclohexylmethyl)-amide], the IC50 came to 20 nM.
As for `COC(=O)C1(CNC(=O)c2ccc3[nH]ccc3c2Cl)CCCCC1` [Example 30, 1-{[(4-Chloro-1H-indole-5-carbonyl)-amino]-methyl}-cyclohexanecarboxylic acid methyl ester], the IC50 stood at 221 nM.
Consider `O=C(NCC1(CO)CCCCC1)c1ccc2[nH]ccc2c1Cl` [Example 31, 4-Chloro-1H-indole-5-carboxylic acid (1-hydroxymethyl-cyclohexylmethyl)-amide], for which the IC50 was 38 nM.
Regarding `Nc1cc(C(=O)NCC2(O)CCCCC2)c(Cl)c2cc[nH]c12` [Example 32, 7-Amino-4-chloro-1H-indole-5-carboxylic acid (1-hydroxy-cyclohexylmethyl)-amide], the half-inhibitory concentration (IC50) was 11 nM.
`Cc1c[nH]c2ccc(C(=O)NCC3(O)CCCCCC3)c(Cl)c12` [Example 33, 4-Chloro-3-methyl-1H-indole-5-carboxylic acid (1-hydroxy-cycloheptylmethyl)-amide]: the IC50 came out at 44 nM.
For the compound `NC(=O)C1(CNC(=O)c2ccc3[nH]ccc3c2Cl)CCCCC1` [Example 34, 4-Chloro-1H-indole-5-carboxylic acid (1-carbamoyl-cyclohexylmethyl)-amide], the IC50 was determined as 130 nM.
In the case of `CNC(=O)C1(CNC(=O)c2ccc3[nH]ccc3c2Cl)CCCCC1` [Example 35, 4-Chloro-1H-indole-5-carboxylic acid (1-methylcarbamoyl-cyclohexylmethyl)-amide], the IC50 came out at 666 nM.
As for `N#CC1(CNC(=O)c2ccc3[nH]ccc3c2Cl)CCCCC1` [Example 36, 4-Chloro-1H-indole-5-carboxylic acid (1-cyano-cyclohexylmethyl)-amide], the IC50 was determined as 27 nM.
Regarding `CC(C)(C)OC(=O)NC1(CNC(=O)c2ccc3[nH]ccc3c2Cl)CCCCC1` [Example 37, (1-{[(4-Chloro-1H-indole-5-carbonyl)-amino]-methyl}-cyclohexyl)-carbamic acid tert-butyl ester], the IC50 amounted to 420 nM.
For `O=C(NCC1(O)CCC(F)(F)CC1)c1c(Cl)cc2[nH]ccc2c1Cl` [Example 38, 4,6-Dichloro-1H-indole-5-carboxylic acid (4,4-difluoro-1-hydroxy-cyclohexylmethyl)-amide] the value was 1320 nM; for `Cc1cc2[nH]ccc2c(Cl)c1C(=O)NCC1(O)CCCCC1` [Example 40, 4-Chloro-6-methyl-1H-indole-5-carboxylic acid (1-hydroxy-cyclohexylmethyl)-amide], 1600 nM.
Regarding `O=C(NCC1(O)CCCC1)c1ccc2[nH]ccc2c1Cl` [Example 41, 4-Chloro-1H-indole-5-carboxylic acid (1-hydroxy-cyclopentylmethyl)-amide], the IC50 was 264 nM.
On to `O=C(NCC1(O)CCCCCCC1)c1ccc2[nH]ccc2c1Cl` [Example 42, 4-Chloro-1H-indole-5-carboxylic acid (1-hydroxy-cyclooctylmethyl)-amide], for which the IC50 amounted to 14 nM.
With `COC1(CNC(=O)c2ccc3[nH]ccc3c2Cl)CCCCC1` [Example 43, 4-Chloro-1H-indole-5-carboxylic acid (1-methoxy-cyclohexylmethyl)-amide], the IC50 was determined as 218 nM.
`C[C@H](NC(=O)c1ccc2[nH]ccc2c1Cl)C1CCCCC1` [Example 44, 4-Chloro-1H-indole-5-carboxylic acid ((S)-1-cyclohexyl-ethyl)-amide]: the IC50 was 1430 nM.
For `C[C@@H](NC(=O)c1ccc2[nH]ccc2c1Cl)C1CCCCC1` [Example 45, 4-Chloro-1H-indole-5-carboxylic acid ((R)-1-cyclohexyl-ethyl)-amide] the value was 81 nM; for `CC(=O)NC1(CNC(=O)c2ccc3[nH]ccc3c2Cl)CCCCC1` [Example 46, 4-Chloro-1H-indole-5-carboxylic acid (1-acetylamino-cyclohexylmethyl)-amide], 209 nM; for `CS(=O)(=O)NC1(CNC(=O)c2ccc3[nH]ccc3c2Cl)CCCCC1` [Example 47, 4-Chloro-1H-indole-5-carboxylic acid (1-methanesulfonylamino-cyclohexylmethyl)-amide], 21 nM.
On to `Cc1cc(C(=O)NCC2(O)CCCCC2)c(Cl)c2c(Br)c[nH]c12` [Example 50, 3-Bromo-4-chloro-7-methyl-1H-indole-5-carboxylic acid (1-hydroxy-cyclohexylmethyl)-amide], for which the 50% inhibitory concentration (IC50) stood at 246 nM.
To `COC(=O)CS(=O)(=O)NC1(CNC(=O)c2ccc3[nH]ccc3c2Cl)CCCCC1` [Example 51, (1-{[(4-Chloro-1H-indole-5-carbonyl)-amino]-methyl}-cyclohexylsulfamoyl)-acetic acid methyl ester] belongs 24 nM.
Turning to `CC(C)Cc1cc(C(=O)NCC2(O)CCCCCC2)c(Cl)c2cc[nH]c12` [Example 52, 4-Chloro-7-isobutyl-1H-indol-5-carboxylic acid (1-hydroxy-cycloheptylmethyl)-amide], the IC50 came out at 5.9 nM.
Consider `COCCCc1cc(C(=O)NCC2(O)CCCCCC2)c(Cl)c2cc[nH]c12` [Example 53, 4-Chloro-7-(3-methoxy-propyl)-1H-indole-5-carboxylic acid (1-hydroxy-cycloheptylmethyl)-amide], for which the IC50 is 4.4 nM.
For `CC(C)Cc1cc(C(=O)NCC2(O)CCC(F)(F)CC2)c(Cl)c2cc[nH]c12` [Example 54, 4-Chloro-7-isobutyl-1H-indole-5-carboxylic acid (4,4-difluoro-1-hydroxy-cyclohexylmethyl)-amide] the value was 13 nM; for `COCCCc1cc(C(=O)NCC2(O)CCC(F)(F)CC2)c(Cl)c2cc[nH]c12` [Example 55, 4-Chloro-7-(3-methoxy-propyl)-1H-indole-5-carboxylic acid (4,4-difluoro-1-hydroxy-cyclohexylmethyl)-amide], 6.7 nM; for `O=C(NCC1(NS(=O)(=O)CCO)CCCCC1)c1ccc2[nH]ccc2c1Cl` [Example 56, 4-Chloro-1H-indole-5-carboxylic acid [1-(2-hydroxy-ethanesulfonylamino)-cyclohexylmethyl]-amide], 9 nM.
To `Cc1c(C(=O)NCC2(O)CCCCC2)ccc2[nH]ccc12` [Example 57, 4-Methyl-1H-indole-5-carboxylic acid (1-hydroxy-cyclohexylmethyl)-amide] belongs 68 nM; to `Cc1ncc(C2(CNC(=O)c3ccc4[nH]ccc4c3Cl)CCCCC2)cn1` [Example 58, 4-Chloro-1H-indole-5-carboxylic acid [1-(2-methyl-pyrimidin-5-yl)-cyclohexylmethyl]-amide], 6.4 nM; to `COc1cc(C(=O)NCC2(O)CCC(F)(F)CC2)c(Cl)c2cc[nH]c12` [Example 59, 4-Chloro-7-methoxy-1H-indole-5-carboxylic acid (4,4-difluoro-1-hydroxy-cyclohexylmethyl)-amide], 5.4 nM.
For `Cc1ncc(C2(CNC(=O)c3ccc4[nH]ccc4c3Cl)CCC(F)(F)CC2)cn1` [Example 60, 4-Chloro-1H-indole-5-carboxylic acid [4,4-difluoro-1-(2-methyl-pyrimidin-5-yl)-cyclohexylmethyl]-amide] the value was 6.3 nM.

These data come from patent US9556117B2, “Indole carboxamide derivatives as P2X7 receptor antagonists” (ACTELION PHARMACEUTICALS LTD, priority 2012, dated 2017).
